Source: ChEMBL document CHEMBL1961873, “Compounds: GSK PKIS; Assays: Nanosyn kinase panel” (2012)
This is a selection; strong and weak results do not stand in their true shares.

target: Protein kinase C gamma type (Homo sapiens) (UniProt P05129); details: at 1 µM
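Also: each value is an averaged percent inhibition of the enzyme.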

Structure (SMILES) | inhibition
O=C1NC(=O)C(c2ccccc2Cl)=C1Nc1cc(Cl)c(O)c(Cl)c1 | 5.5%
Fc1ccc(-c2ncn(C3CCNCC3)c2-c2ccnc(Oc3cccc(F)c3)n2)cc1 | 7.29%
O=C1NC(=O)C(c2cccc([N+](=O)[O-])c2)=C1Nc1cc(Cl)c(O)c(Cl)c1 | 1.14%
Fc1ccc(Oc2nccc(-c3c(-c4ccc(F)cc4)ncn3C3CCNCC3)n2)cc1 | 2.24%
CC(C)(C)c1ccc(Oc2nccc(-c3c(-c4ccc(F)cc4)ncn3C3CCNCC3)n2)cc1 | 6.93%
COc1ccccc1Oc1nccc(-c2c(-c3ccc(F)cc3)ncn2C2CCNCC2)n1 | 0.32%
Cc1cccc(Oc2nccc(-c3c(-c4ccc(F)cc4)ncn3C3CCNCC3)n2)c1C | 3.63%
Fc1ccc(-c2ncn(C3CCNCC3)c2-c2ccnc(Oc3cccc(C(F)(F)F)c3)n2)cc1 | 3.52%
Fc1ccc(-c2ncn(C3CCNCC3)c2-c2ccnc(Oc3ccc(Cl)cc3)n2)cc1 | 1.3%
CS(=O)(=O)c1ccc(Oc2nccc(-c3c(-c4ccc(F)cc4)ncn3C3CCNCC3)n2)cc1 | 2.93%
NC(=O)CCc1ccccc1Oc1nccc(-c2c(-c3ccc(F)cc3)ncn2C2CCNCC2)n1 | 1.89%
O=C1NC(=O)C(c2ccccc2)=C1Nc1ccccc1 | 12.2%
COc1ccccc1C1=C(Nc2ccccc2)C(=O)NC1=O | 3.89%
O=C(O)c1ccc(Oc2nccc(-c3c(-c4ccc(F)cc4)ncn3C3CCNCC3)n2)cc1 | 1.91%
